Measured values taken from the supplement of paper PMC4967469.

Columns and labels:
Test in all cases: Viability of human cancer cell lines after 72 h of drug (GDSC screen)
[1] = compound: CC(C)(C)c1nc(-c2cccc(NS(=O)(=O)c3c(F)cccc3F)c2F)c(-c2ccnc(N)n2)s1 [Dabrafenib]; settings: top dose 10 µM
Protocol: (§1)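 Human cancer cell lines in 384-well plates, medium with 10% serum, drug for 72 h over a 256-fold dose range (nine 2-fold or five 4-fold steps up to the top dose). Adherent lines were fixed and stained with the nucleic acid dye Syto60, suspension lines read with resazurin; signal relative to control wells, capped at 0 and 100%. One two-parameter sigmoid per drug and line, fitted in a mixed model over all curves with the slope shared within a line.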

[2] = compound: CN(Cc1cnc2nc(N)nc(N)c2n1)c1ccc(C(=O)N[C@@H](CCC(=O)O)C(=O)O)cc1 [Methotrexate]; settings: top dose 0.2 µM
Protocol: as §1

[3] = compound: CCc1c2c(nc3ccc(O)cc13)-c1cc3c(c(=O)n1C2)COC(=O)[C@]3(O)CC [SN-38]; settings: top dose 0.05 µM; top dose inferred
Protocol: as §1

[4] = compound: CNC(=O)c1ccccc1Sc1ccc2c(/C=C/c3ccccn3)n[nH]c2c1 [Axitinib]; settings: top dose 2 µM
Protocol: as §1

Cell Line	AUC [1]	IC50 [1]	AUC [2]	IC50 [2]	AUC [3]	IC50 [3]	AUC [4]	IC50 [4]
T47D (breast, adherent)	0.932	> 10000 nM	0.977	> 200 nM	0.817	> 50 nM		
FADU (head and neck, adherent)					0.277	0.748 nM	0.943	> 2000 nM
OVCAR-5 (ovary, adherent)	0.931	> 10000 nM	0.981	> 200 nM	0.757	20.4 nM		
NCI-H226 (lung squamous cell carcinoma, adherent)	0.966	> 10000 nM	0.977	> 200 nM	0.855	43 nM		
SK-OV-3 (ovary, adherent)	0.884	> 10000 nM	0.969	> 200 nM	0.715	15 nM		
CAL-27 (head and neck, adherent)	0.922	> 10000 nM	0.94	> 200 nM	0.482	2.79 nM		
RPMI-8226 (myeloma, suspension)	0.952	> 10000 nM	0.608	23.7 nM	0.897	48 nM		
OVCAR-4 (ovary, adherent)	0.962	> 10000 nM	0.955	> 200 nM	0.819	49.3 nM		
NCI-H1417 (small cell lung carcinoma, suspension)	0.571	1020 nM			0.255	0.534 nM	0.888	> 2000 nM
HOP-62 (lung adenocarcinoma, adherent)	0.982	> 10000 nM	0.967	> 200 nM	0.402	1.68 nM		
NCI-H441 (lung adenocarcinoma, adherent)					0.673	11.6 nM	0.98	> 2000 nM
HOP-92 (large cell lung carcinoma, adherent)	0.955	> 10000 nM	0.984	> 200 nM	0.594	5.92 nM		
NOMO-1 (acute myeloid leukaemia, suspension)	0.874	> 10000 nM			0.717	14.2 nM	0.844	1720 nM
CAPAN-1 (pancreas, adherent)			0.987	> 200 nM	0.788	24.6 nM		
KU812 (chronic myeloid leukaemia, suspension)	0.669	1760 nM	0.827	108 nM	0.797	21.3 nM		
EKVX (lung adenocarcinoma, adherent)	0.965	> 10000 nM	0.832	> 200 nM	0.889	> 50 nM		
HCC1500 (breast, adherent)	0.985	> 10000 nM			0.798	24.8 nM	0.975	> 2000 nM
OV-90 (ovary, adherent)	0.124	< 39.1 nM			0.814	37.2 nM	0.939	> 2000 nM
NCI-H82 (small cell lung carcinoma, suspension)	0.982	> 10000 nM	0.619	26.1 nM	0.945	> 50 nM		
LoVo (large intestine, adherent)	0.832	6520 nM	0.981	> 200 nM	0.81	26.7 nM		
CAKI-1 (kidney, adherent)	0.861	> 10000 nM	0.883	> 200 nM	0.615	7.56 nM		

Cell Line	AUC [1]	IC50 [1]	AUC [2]	IC50 [2]	AUC [3]	IC50 [3]	AUC [4]	IC50 [4]
MEG-01 (chronic myeloid leukaemia, suspension)	0.618	1290 nM	0.647	31.1 nM	0.898	> 50 nM		
A431 (skin, adherent)					0.515	3.43 nM	0.966	> 2000 nM
NCI-H1876 (small cell lung carcinoma, adherent)	0.983	> 10000 nM			0.237	0.538 nM	0.93	> 2000 nM
SK-MEL-5 (melanoma, adherent)	0.366	245 nM	0.98	> 200 nM	0.734	17.2 nM		
SW620 (large intestine, adherent)	0.951	> 10000 nM	0.982	> 200 nM	0.476	2.7 nM		
BxPC-3 (pancreas, adherent)	0.941	> 10000 nM	0.964	> 200 nM	0.748	17.9 nM		
ACHN (kidney, adherent)	0.674	2050 nM	0.81	124 nM	0.544	4.19 nM		
HCC1937 (breast, adherent)	0.983	> 10000 nM			0.851	47.8 nM	0.906	> 2000 nM
SK-MEL-2 (melanoma, adherent)	0.708	2470 nM	0.985	> 200 nM	0.781	21.5 nM		
NCI-H460 (large cell lung carcinoma, adherent)	0.976	> 10000 nM	0.737	54.8 nM	0.623	6.59 nM		
A498 (kidney, adherent)	0.958	> 10000 nM	0.96	> 200 nM	0.706	16.1 nM		
MIA-PaCa-2 (pancreas, adherent)			0.96	> 200 nM	0.422	1.87 nM		
TK10 (kidney, adherent)	0.878	> 10000 nM	0.981	> 200 nM	0.826	39.2 nM		
SW48 (large intestine, adherent)	0.957	> 10000 nM	0.986	> 200 nM	0.516	3.46 nM		
UACC-62 (melanoma, adherent)	0.102	< 39.1 nM	0.986	> 200 nM	0.546	4.16 nM		
KM12 (large intestine, adherent)	0.94	> 10000 nM	0.818	125 nM	0.953	> 50 nM		
SF268 (glioma, adherent)	0.953	> 10000 nM	0.955	> 200 nM	0.465	2.49 nM		
NCI-H322M (lung adenocarcinoma, suspension)	0.974	> 10000 nM	0.942	> 200 nM	0.968	> 50 nM		
UACC-257 (melanoma, adherent)	0.146	< 39.1 nM	0.982	> 200 nM	0.85	> 50 nM		
8505C (thyroid, adherent)			0.984	> 200 nM	0.707	12.5 nM		
SF539 (glioma, adherent)	0.985	> 10000 nM	0.988	> 200 nM	0.618	6.38 nM		

Cell Line	AUC [1]	IC50 [1]	AUC [2]	IC50 [2]	AUC [3]	IC50 [3]	AUC [4]	IC50 [4]
NCI-H2122 (lung adenocarcinoma, adherent)					0.617	6.41 nM	0.959	> 2000 nM
SNB75 (glioma, adherent)	0.974	> 10000 nM	0.979	> 200 nM	0.745	22.3 nM		
HuH-7 (liver, adherent)	0.854	7840 nM	0.959	> 200 nM	0.793	22.8 nM		
OCI-AML3 (acute myeloid leukaemia, suspension)	0.881	7930 nM	0.755	59.1 nM	0.633	6.86 nM		
DU-145 (prostate, adherent)	0.913	> 10000 nM	0.918	> 200 nM	0.588	5.59 nM		
SKM-1 (haematopoietic neoplasm, suspension)	0.88	> 10000 nM			0.607	6.35 nM		
SW1463 (large intestine, adherent)	0.946	> 10000 nM			0.873	> 50 nM		
HLE (liver, adherent)	0.986	> 10000 nM			0.559	4.49 nM		
H2591 (mesothelioma, adherent)	0.906	> 10000 nM			0.685	12.2 nM		
BEN (non-small cell lung carcinoma, adherent)	0.985	> 10000 nM			0.912	> 50 nM		
H2818 (mesothelioma, adherent)	0.921	> 10000 nM			0.807	26.7 nM		
SF295 (glioma, adherent)	0.959	> 10000 nM	0.977	> 200 nM	0.718	13.7 nM		
A673 (rhabdomyosarcoma, adherent)	0.755	3080 nM			0.27	0.755 nM		
TC-71 (Ewing sarcoma, adherent)	0.963	> 10000 nM			0.431	2.1 nM		
NCI-H358 (lung adenocarcinoma, adherent)					0.764	20.1 nM	0.954	> 2000 nM
A2780 (ovary, semi-adherent)	0.958	> 10000 nM			0.966	> 50 nM		
HEL (acute myeloid leukaemia, semi-adherent)	0.958	> 10000 nM			0.619	6.26 nM		
U251 (glioma, adherent)	0.971	> 10000 nM	0.987	> 200 nM	0.255	0.648 nM		
HTC-C3 (thyroid, adherent)	0.183	60.6 nM			0.859	49.7 nM		
SU-DHL-10 (B-cell lymphoma, suspension)	0.998	> 10000 nM			0.834	20.4 nM		
CCRF-CEM (lymphoblastic leukaemia, suspension)	0.899	9050 nM			0.363	1.4 nM		

Cell Line	AUC [1]	IC50 [1]	AUC [2]	IC50 [2]	AUC [3]	IC50 [3]	AUC [4]	IC50 [4]
NCI-H1573 (lung adenocarcinoma, adherent)	0.935	> 10000 nM			0.99	> 50 nM		
AsPC-1 (pancreas, adherent)	0.719	4140 nM	0.846	> 200 nM	0.908	> 50 nM		
A549 (lung adenocarcinoma, adherent)	0.841	8240 nM			0.523	3.64 nM		
NCI-H522 (lung adenocarcinoma, adherent)	0.955	> 10000 nM			0.883	> 50 nM		
BT-549 (breast, adherent)	0.956	> 10000 nM			0.758	24.1 nM		
KYSE-180 (oesophagus, adherent)	0.987	> 10000 nM			0.84	32.3 nM		
786-0 (kidney, adherent)	0.957	> 10000 nM			0.532	3.79 nM		
NB7 (neuroblastoma, adherent)	0.984	> 10000 nM			0.985	> 50 nM		
HCT-15 (large intestine, adherent)	0.944	> 10000 nM	0.679	40.9 nM	0.911	> 50 nM		
SW156 (kidney, adherent)	0.887	> 10000 nM			0.748	17.7 nM		
M14 (melanoma, adherent)			0.953	> 200 nM	0.7	11.8 nM		
HCC2998 (large intestine, adherent)			0.84	132 nM	0.587	5.36 nM		
GAMG (glioma, adherent)	0.956	> 10000 nM			0.645	8.04 nM		
U-87-MG (glioma, adherent)	0.937	> 10000 nM	0.983	> 200 nM	0.33	0.962 nM		
SW837 (large intestine, adherent)	0.98	> 10000 nM			0.87	> 50 nM		
ML-1 (thyroid, adherent)	0.917	> 10000 nM			0.726	15.6 nM		
BPH-1 (prostate, adherent)	0.96	> 10000 nM			0.495	3.03 nM		
A375 (melanoma, adherent)			0.991	> 200 nM				

A lower IC50 marks a more sensitive line; a fit beyond the top or the lowest dose is shown as a bound at that dose. For AUC the same curve is integrated over the 256-fold range of doses and scaled to a fraction; values near 1 show little effect. For some of these results: Any top dose called inferred was derived from the fitted curves, not read from the paper.
